From patent US20220389066A1 (Affibody, published 2022) come the findings set out here.

Assay [1] deals with T1, HMGB1(red), fully reduced form of full-length HMGB1 (HMGB1C23hC45hC106h) (rat, UniProt P63159 1-215, all cysteines reduced (C23h, C45h, C106h)).
T1 construct: Produced by HMGBiotech; also called HMGB1(reduced); b-HMGB1(red)
T1 sequence: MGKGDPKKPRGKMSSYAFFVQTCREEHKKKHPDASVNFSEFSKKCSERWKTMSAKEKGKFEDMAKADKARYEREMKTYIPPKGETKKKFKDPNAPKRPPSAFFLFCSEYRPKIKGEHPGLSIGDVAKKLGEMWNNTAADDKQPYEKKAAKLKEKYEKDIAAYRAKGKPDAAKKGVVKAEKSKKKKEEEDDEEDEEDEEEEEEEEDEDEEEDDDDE
Nature of the assay: QCM (Attana A200); polypeptide captured on HSA, HMGB1(red) injected, 2 mM DTT; 1:1 or 1:2 model, relevant kd (most represented). The protocol:
(§1) Binding analysis: The Attana A200® biosensor was used to characterize interactions between the dimeric polypeptides (SEQ ID NO:38-48) and HMGB1(red) under reducing conditions and/or HMGB1(disulfide) under non-reducing conditions. The monomeric ZA3812 (SEQ ID NO:35) was included for comparison. The experiment was performed as a capture assay, in which HSA was immobilized on Attana's sensor chip Low-NonSpecific-Binding (LNB). Immobilization was performed using amine coupling. The instrument has two sensor surfaces and HSA was immobilized on both surfaces. Around 110 Hz of HSA was stably immobilized on the surfaces.
(§2) In the kinetic experiment, HBS-EP+/−2 mM DTT was used as running buffer and the flow rate was 25 μl/min at 22° C. In each cycle, one polypeptide was tested against one concentration of HMGB1. […] The analyte HMGB1(reduced) was diluted in HBS-EP+2 mM DTT within a concentration range of 1.33 to 21.4 μg/ml, and the analyte HMGB1(disulfide) was diluted in HBS-EP buffer within a concentration range of 0.62 to 10 μg/ml. Both analytes were subsequently injected for 84 s over both channel A and B, where channel B was used as a blank surface for curve subtraction. Buffer injections were also made for surface subtractions. After dissociation, the surfaces were regenerated with a 30 s injection of 100 mM HCl followed by a 30 s injection of 20 mM NaOH. Data was collected by Attester Software and subsequently processed in the Evaluation Software. To calculate the kinetic parameters (kₐ and kd) and affinity constant (KD), the experimental data were fitted using a 1:1 or a 1:2 binding model.
(§3) Binding analysis of dimeric polypeptides targeting HMGB1: The interactions of a set of dimeric polypeptides, as well as one monomeric polypeptide, with HMGB1(reduced) and/or HMGB1(disulfide) were analyzed using an Attana A200® biosensor instrument by injecting various concentrations of HMGB1 over a surface containing captured polypeptides in fusion with ABD bound by immobilized HSA.

Assay [2] deals with T2, HMGB1(disulfide), disulfide linked form of full-length HMGB1 (HMGB1C23-C45C106h) (rat, UniProt P63159 1-215, disulfide C23-C45; C106 reduced).
T2 construct: unlabelled in Biacore and Attana; also called b-HMGB1(disulfide)
T2 sequence: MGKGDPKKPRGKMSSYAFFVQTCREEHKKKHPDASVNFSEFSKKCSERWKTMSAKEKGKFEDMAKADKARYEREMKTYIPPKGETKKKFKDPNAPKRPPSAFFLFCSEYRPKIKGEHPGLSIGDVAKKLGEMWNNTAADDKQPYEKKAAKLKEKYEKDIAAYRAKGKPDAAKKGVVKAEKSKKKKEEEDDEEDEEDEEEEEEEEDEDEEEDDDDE
Nature of the assay: SPR (Biacore 2000); Z-ABD captured on HSA, analyte injected; heterogeneous ligand parallel reactions model, ka2. The protocol: Biacore kinetic and specificity analysis: Kinetic constants (kₐ and kd) and affinities (KD) for HMGB1(red), HMGB1(disulfide), boxA(disulfide) and GST-boxA(red) were determined for the A-box binding Z-ABD polypeptides ZA3812 (SEQ ID NO:35) and ZA3914 (SEQ ID NO:36) (see Example 2), as well as for the HMGB1(red) interaction with the B-box binding polypeptide ZA3975, using a Biacore 2000 instrument (GE Healthcare).
The experiment was performed as a capture assay, in which human serum albumin (HSA, Novozymes, cat. no. 230-005) was immobilized on the carboxylated dextran layer of one CM5 chip surface (GE Healthcare, cat. no. BR100012) to immobilization levels of approximately 3000 RU. The immobilization was performed using amine coupling chemistry according to the manufacturer's protocol and using HBS-EP (GE Healthcare, cat. no. BR100188) as running buffer. In a first set of experiments, Z-ABD polypeptides were analyzed under non-reducing conditions. One flow cell surface was activated and deactivated for use as blank during ligand and analyte injections. In the kinetic experiment, HBS-EP was used as running buffer and the flow rate was 30 μl/min. The ligand, i.e. the Z-ABD polypeptide, was diluted in HBS-EP buffer to a concentration of 30 nM and injected during 2 min. […]
A general note: SPR reads the build-up and loss of mass on a sensor chip optically.

The target of assay [3] is T1, HMGB1(red), fully reduced form of …. The assay is described as follows: cell-based or functional assay.
Assay [4] shares this target. The assay is described as follows: QCM (Attana A200); polypeptide captured on HSA, HMGB1(red) injected, 2 mM DTT; 1:1 or 1:2 model, average KD. The protocol:
as §1, §2, §3

The target of assay [5] is T3, human serum albumin (HSA) (human, UniProt P02768 25-609).
T3 construct: Immobilized on sensor chips to capture ABD (PP013) fusions
The assay is described as follows: QCM (Attana A200); capture on immobilized HSA.

For orientation: koff means the rate constant with which the complex falls apart. The term kon denotes a measure of how fast the partners come together. Read a low kon as slow association. As a reminder, the Kd is the free concentration of one partner at which half of the binding sites on the other are occupied at equilibrium, for simple one-to-one binding.

T3 sequence (P02768 25-609 limits assumed): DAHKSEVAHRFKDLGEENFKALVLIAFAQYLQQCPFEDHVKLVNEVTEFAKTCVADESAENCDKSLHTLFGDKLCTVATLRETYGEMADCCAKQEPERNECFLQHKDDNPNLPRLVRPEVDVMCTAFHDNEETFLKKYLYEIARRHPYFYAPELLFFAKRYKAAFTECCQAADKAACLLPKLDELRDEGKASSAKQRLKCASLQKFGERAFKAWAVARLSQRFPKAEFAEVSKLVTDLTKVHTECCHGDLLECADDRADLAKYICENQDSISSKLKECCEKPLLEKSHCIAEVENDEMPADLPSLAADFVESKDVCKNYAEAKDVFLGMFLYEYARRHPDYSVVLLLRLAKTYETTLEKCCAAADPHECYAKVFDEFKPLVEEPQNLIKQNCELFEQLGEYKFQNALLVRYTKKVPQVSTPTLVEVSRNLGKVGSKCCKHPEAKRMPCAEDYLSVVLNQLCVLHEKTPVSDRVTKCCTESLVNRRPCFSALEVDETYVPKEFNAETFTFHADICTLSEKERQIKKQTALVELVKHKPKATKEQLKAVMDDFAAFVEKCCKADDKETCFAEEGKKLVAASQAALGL

B1: ZA3812 ([ZH 27]-ASGS-PP013) (designed binder)
chain: AEAKYAKEDWDAFWEIIWLPNLTDAQQRAFIYKLEDDPSQSSELLSEAKKLNDSQAPKASGSLAEAKEAANAELDSYGVSDFYKRLIDKAKTVEGVEALKDAILAALP
With B1, the koff in assay [1] was 0.013 s⁻¹. For the same molecule, the kon in assay [2] came to 13000 M⁻¹ s⁻¹. Besides, the “IC50 of inhibition of HMGB1 induced cell migration” value in assay [3] is no more than 0.1 nM. In assay [4], binding was characterised by a dissociation constant (Kd) of 51 nM.

B2: ZZA4263, Z(boxB)-L2-Z(boxA)-ABD (designed binder)
chain: AEAKYAKEAWLAEQEIWQLPNLTEAQFQAFILKLIDDPSQSSELLSEAKKLNDSQAPKGAPGGGGSTSAEAKYAKEDWDAFWEIIWLPNLTDAQQRAFIYKLEDDPSQSSELLSEAKKLNDSQAPKASGSLAEAKEAANAELDSYGVSDFYKRLIDKAKTVEGVEALKDAILAALP
notes: Heterodimer of ZH27 and ZH32 with PP013
In the case of B2, in assay [5], the binding result is listed as “binds”.
